# From the supplement of paper PMC8728848
# The list shows a part of the results.
# How the values were obtained:
# Experiment in all cases: glycan array binding signal (z-score within array); higher = stronger binding
# Conditions in all cases: glycan notation: IUPAC condensed, linker removed
# Gal(a1-3)Gal(b1-4)GlcNAc = target: Gal(a1-3)Gal(b1-4)GlcNAc
# Outline: (§1)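 Glycan array data were curated from 3228 arrays in the Consortium for Functional Glycomics database and kept only where the protein sequence was available. Glycan names were converted to IUPAC-condensed notation, and columns mapping to the same glycan were averaged. The binding signal is a within-array Z-score, averaged across arrays of the same protein sequence at different concentrations or buffers and across linkers. Negative Z-scores can be read as non-binding.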
# [1] = target: Gal(a1-3)Gal(b1-4)GlcNAc(b1-2)Man
# Outline: as §1
# [2] = target: Gal(a1-3)Gal(b1-4)GlcNAc(b1-2)Man(a1-3)[Gal(a1-3)Gal(b1-4)GlcNAc(b1-2)Man(a1-6)]Man(b1-4)GlcNAc(b1-4)GlcNAc
# Outline: as §1
# [3] = target: Gal(a1-3)Gal(b1-4)GlcNAc(b1-3)GalNAc
# Outline: as §1
# [4] = target: Gal(a1-3)Gal(b1-4)GlcNAc(b1-6)GalNAc
# Outline: as §1
# [5] = target: Gal(a1-3)Gal(b1-4)[Fuc(a1-3)]GlcNAc
# Outline: as §1
# [6] = target: Gal(a1-3)Gal(b1-4)[Fuc(a1-3)]GlcNAc(b1-2)Man(a1-3)[Gal(a1-3)Gal(b1-4)[Fuc(a1-3)]GlcNAc(b1-2)Man(a1-6)]Man(b1-4)GlcNAc(b1-4)GlcNAc
# Outline: as §1
# Gal(a1-3)GalNAc = target: Gal(a1-3)GalNAc
# Outline: as §1
# [7] = target: Gal(a1-3)[Gal(a1-4)]Gal(b1-4)GlcNAc
# Outline: as §1
# [8] = target: Gal(a1-4)Gal(b1-3)GlcNAc(b1-2)Man(a1-3)[Gal(a1-4)Gal(b1-3)GlcNAc(b1-2)Man(a1-6)]Man(b1-4)GlcNAc(b1-4)GlcNAc
# Outline: as §1
# Gal(a1-4)Gal(b1-4)Glc = target: Gal(a1-4)Gal(b1-4)Glc
# Outline: as §1
# Gal(a1-4)Gal(b1-4)GlcNAc = target: Gal(a1-4)Gal(b1-4)GlcNAc
# Outline: as §1
# [9] = target: Gal(a1-4)Gal(b1-4)GlcNAc(b1-2)Man(a1-3)[Gal(a1-4)Gal(b1-4)GlcNAc(b1-2)Man(a1-6)]Man(b1-4)GlcNAc(b1-4)GlcNAc
# Outline: as §1
# [10] = target: Gal(a1-4)Gal(b1-4)GlcNAc(b1-3)Gal(b1-4)Glc
# Outline: as §1
# Gal(a1-4)GlcNAc = target: Gal(a1-4)GlcNAc
# Outline: as §1
# Gal(a1-6)Glc = target: Gal(a1-6)Glc
# Outline: as §1
# Gal(b1-2)Gal = target: Gal(b1-2)Gal
# Outline: as §1
# Gal(b1-3)Gal = target: Gal(b1-3)Gal
# Outline: as §1
# Gal(b1-3)Gal(b1-4)GlcNAc = target: Gal(b1-3)Gal(b1-4)GlcNAc
# Outline: as §1
# Gal(b1-3)GalNAc = target: Gal(b1-3)GalNAc
# Outline: as §1
# [11] = target: Gal(b1-3)GalNAc(a1-3)[Fuc(a1-2)]Gal(b1-4)Glc
# Outline: as §1
# [12] = target: Gal(b1-3)GalNAc(a1-3)[Fuc(a1-2)]Gal(b1-4)GlcNAc
# Outline: as §1
# Gal(b1-3)GalNAc(b1-3)Gal = target: Gal(b1-3)GalNAc(b1-3)Gal
# Outline: as §1
# [13] = target: Gal(b1-3)GalNAc(b1-3)Gal(a1-4)Gal(b1-4)Glc
# Outline: as §1
# [14] = target: Gal(b1-3)GalNAc(b1-4)Gal(b1-4)Glc
# Outline: as §1
# [15] = target: Gal(b1-3)GalNAc(b1-4)[Neu5Ac(a2-3)]Gal(b1-4)Glc
# Outline: as §1
# Gal(b1-3)GlcNAc = target: Gal(b1-3)GlcNAc
# Outline: as §1
# [16] = target: Gal(b1-3)GlcNAc(a1-3)Gal(b1-4)GlcNAc
# Outline: as §1
# [17] = target: Gal(b1-3)GlcNAc(a1-6)Gal(b1-4)GlcNAc
# Outline: as §1
# Gal(b1-3)GlcNAc(b1-2)Man = target: Gal(b1-3)GlcNAc(b1-2)Man
# Outline: as §1
# [18] = target: Gal(b1-3)GlcNAc(b1-2)Man(a1-3)[Gal(b1-3)GlcNAc(b1-2)Man(a1-6)]Man(b1-4)GlcNAc(b1-4)GlcNAc
# Outline: as §1
# [19] = target: Gal(b1-3)GlcNAc(b1-2)Man(a1-3)[Gal(b1-3)GlcNAc(b1-2)Man(a1-6)]Man(b1-4)GlcNAc(b1-4)[Fuc(a1-6)]GlcNAc
# Outline: as §1
# [20] = target: Gal(b1-3)GlcNAc(b1-2)Man(a1-3)[GlcNAc(b1-4)][Gal(b1-3)GlcNAc(b1-2)Man(a1-6)]Man(b1-4)GlcNAc(b1-4)GlcNAc
# Outline: as §1
# [21] = target: Gal(b1-3)GlcNAc(b1-2)[Gal(b1-3)GlcNAc(b1-6)]Man(a1-6)[Gal(b1-3)GlcNAc(b1-2)Man(a1-3)]Man(b1-4)GlcNAc(b1-4)GlcNAc
# Outline: as §1
# [22] = target: Gal(b1-3)GlcNAc(b1-3)Gal(b1-3)GlcNAc
# Outline: as §1
# [23] = target: Gal(b1-3)GlcNAc(b1-3)Gal(b1-4)Glc
# Outline: as §1
# [24] = target: Gal(b1-3)GlcNAc(b1-3)Gal(b1-4)GlcNAc
# Outline: as §1
binder,measurement,setting,value
Epa1 (Candida glabrata) (protein) MGSSHHHHHHSSGLVPRGSHMTSSNDISLASKDPTTFPLGCSPDITTPKKGLSMELYSYDFRKKGSYPCWDAAYLDPNYPRTGYKSHRLLAKVDGVTGNINFYYHATKGCTPQLGHLPASYNYPKPLTMTNFTMLLYGYFRPKVTGFHTFTISADDLLFVNFGAGNAFDCCRRDSSADHFGNYQAYAIWGSKTAKDELTVHLDAGVYYPIRLFYNNREYDGALSFTFKTESNENTVSDFSEYFFSLDDTEEGCPGLISYD,glycan array binding signal (z-score),Gal(a1-3)Gal(b1-4)GlcNAc,-0.179
same,glycan array binding signal (z-score),[1],-0.292
same,glycan array binding signal (z-score),[2],-0.235
same,glycan array binding signal (z-score),[3],-0.277
same,glycan array binding signal (z-score),[4],-0.164
same,glycan array binding signal (z-score),[5],0.015
same,glycan array binding signal (z-score),[6],-0.266
same,glycan array binding signal (z-score),Gal(a1-3)GalNAc,-0.266
same,glycan array binding signal (z-score),[7],-0.254
same,glycan array binding signal (z-score),[8],-0.266
same,glycan array binding signal (z-score),Gal(a1-4)Gal(b1-4)Glc,-0.259
same,glycan array binding signal (z-score),Gal(a1-4)Gal(b1-4)GlcNAc,-0.081
same,glycan array binding signal (z-score),[9],-0.142
same,glycan array binding signal (z-score),[10],-0.256
same,glycan array binding signal (z-score),Gal(a1-4)GlcNAc,0.013
same,glycan array binding signal (z-score),Gal(a1-6)Glc,-0.125
same,glycan array binding signal (z-score),Gal(b1-2)Gal,-0.096
same,glycan array binding signal (z-score),Gal(b1-3)Gal,3.63
same,glycan array binding signal (z-score),Gal(b1-3)Gal(b1-4)GlcNAc,8.5
same,glycan array binding signal (z-score),Gal(b1-3)GalNAc,3.51
same,glycan array binding signal (z-score),[11],2.05
same,glycan array binding signal (z-score),[12],2.44
same,glycan array binding signal (z-score),Gal(b1-3)GalNAc(b1-3)Gal,6.23
same,glycan array binding signal (z-score),[13],2.5
same,glycan array binding signal (z-score),[14],9.89
same,glycan array binding signal (z-score),[15],4.04
same,glycan array binding signal (z-score),Gal(b1-3)GlcNAc,-0.059
same,glycan array binding signal (z-score),[16],-0.16
same,glycan array binding signal (z-score),[17],0.132
same,glycan array binding signal (z-score),Gal(b1-3)GlcNAc(b1-2)Man,0.114
same,glycan array binding signal (z-score),[18],0.9
same,glycan array binding signal (z-score),[19],0.599
same,glycan array binding signal (z-score),[20],0.171
same,glycan array binding signal (z-score),[21],0.281
same,glycan array binding signal (z-score),[22],-0.175
same,glycan array binding signal (z-score),[23],-0.323
same,glycan array binding signal (z-score),[24],-0.269
